In US7811992B2, “Anti-infarction molecules” (Stasys Technologies, Inc., priority 2002, dated 2010):
Values joined by “and” are separate entries in the source; they are usually repeats but may differ in a detail not shown here. Equal entries are not always repeated.

Test system: cerebral infarction in mouse MCAO model
Assay: Mouse MCAO model, FPA variants (Example 5)
Format: in vivo, C57BL/6 mouse
Conditions: for % Ischemic Injury: dose equivalent to 10 mg/kg of parent peptide, 1 hour after MCAO; for ischemia injury %, Mean: mean over the animals of one experiment, VP001 10 mg/kg, other variants equivalent dose according to MW

Substance: VP012 (GEFLAEGGGV)
- % Ischemic Injury: 27.8%
- ischemia injury %, Mean: 24.5% and 31.0%

Substance: VP013 (GEFLAEGGG)
- % Ischemic Injury: 27.2%
- ischemia injury %, Mean: 27.2%

Substance: VP014 (GEFLAEGG)
- % Ischemic Injury: 22.9%
- ischemia injury %, Mean: 20.0% and 25.9%

Substance: VP015 (GEFLAEG)
- % Ischemic Injury: 17.5%
- ischemia injury %, Mean: 17.6%

Substance: VP016 (GEFLAE)
- % Ischemic Injury: 28.7%
- ischemia injury %, Mean: 28.7%

Substance: VP017 (GEFLA)
- % Ischemic Injury: 27.3%
- ischemia injury %, Mean: 27.3%

Substance: VP018 (EFLAEGGGVR)
- % Ischemic Injury: 26.2%
- ischemia injury %, Mean: 26.2%

Substance: VP019 (FLAEGGGVR)
- % Ischemic Injury: 14.1%
- ischemia injury %, Mean: 14.1%

Substance: VP020 (LAEGGGVR)
- % Ischemic Injury: 28.4%
- ischemia injury %, Mean: 28.4%

Substance: VP021 (AEGGGVR)
- % Ischemic Injury: 15.6%
- ischemia injury %, Mean: 15.6%

Substance: VP022 (EGGGVR)
- % Ischemic Injury: 19.9%
- ischemia injury %, Mean: 19.9%

Substance: VP023 (EFLAE)
- % Ischemic Injury: 16.4%
- ischemia injury %, Mean: 16.4%

Substance: VP024 (FLAEG)
- % Ischemic Injury: 22.2%
- ischemia injury %, Mean: 22.2%

Substance: VP025 (LAEGG)
- % Ischemic Injury: 25.8%
- ischemia injury %, Mean: 25.8%

Substance: VP026 (AEGGG)
- % Ischemic Injury: 36.8%
- ischemia injury %, Mean: 36.8%

Substance: VP027 (EGGGV)
- % Ischemic Injury: 31.1%
- ischemia injury %, Mean: 31.1%

Substance: VP028 (GGGVR)
- % Ischemic Injury: 13.9%
- ischemia injury %, Mean: 13.9%

Substance: VP029 (AEFLAEGGGVR)
- % Ischemic Injury: 5.6%
- ischemia injury %, Mean: 5.6%

Substance: VP030 (GAFLAEGGGVR)
- % Ischemic Injury: 18.3%
- ischemia injury %, Mean: 18.3%

Substance: VP031 (GEALAEGGGVR)
- % Ischemic Injury: 18.7%
- ischemia injury %, Mean: 18.7%

Substance: VP032 (GEFAAEGGGVR)
- % Ischemic Injury: 22.4%
- ischemia injury %, Mean: 17.5% and 27.2%

Substance: VP033 (GEFLGEGGGVR)
- % Ischemic Injury: 15.4%
- ischemia injury %, Mean: 15.4%

Substance: VP034 (GEFLAAGGGVR)
- % Ischemic Injury: 21.8%
- ischemia injury %, Mean: 21.8%

Substance: VP035 (GEFLAEAGGVR)
- % Ischemic Injury: 19.0%
- ischemia injury %, Mean: 19.0%

Substance: VP036 (GEFLAEGAGVR)
- % Ischemic Injury: 28.9%
- ischemia injury %, Mean: 28.9%

Substance: VP037 (GEFLAEGGAVR)
- % Ischemic Injury: 16.9%
- ischemia injury %, Mean: 16.9%

Substance: VP038 (GEFLAEGGGAR)
- % Ischemic Injury: 32.3%
- ischemia injury %, Mean: 32.3%

Substance: VP039 (ADTDKGEFLAEGGGVR)
- % Ischemic Injury: 24.8%
- ischemia injury %, Mean: 22.7% and 26.8%
